Data as given in ChEMBL document CHEMBL1201862, “PubChem BioAssay data set” (2004).
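Five compound concentrations were applied to cells in 96-well plates for 48 hours; endpoints were derived by simple linear interpolation of the resulting dose-response curve. Abbreviation: GI50, concentration required for 50% inhibition of growth.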 The source made the active and inactive calls. Cut-off read from the data, not from the text of the source: active = GI50 up to about 1.1 µM and inactive = higher.

These molecules were tested on NCI-H322M (assay: growth of human tumour cells (NCI), 48 h).
`O=C(NN1C(=O)C(Cl)C1c1ccccc1O)c1ccccc1O` (centres undefined) was tested, and the GI50 was inactive: 3.4 µM. `CC1=C(/C=C/C(C)=C/C=C/C(C)=C/C=C/C=C(C)/C=C/C=C(C)/C=C/C2=C(C)C(=O)C(O)CC2(C)C)C(C)(C)CC(O)C1=O` (centres undefined) was tested, and the GI50 was inactive: > 100 µM. `O=C(O)CCSCc1ccccc1` was tested, and the GI50 was inactive: > 100 µM. For `Nc1nnnn1CCO`, the GI50 was inactive: > 100 µM. For `COc1ccc2nc3cc([N+](=O)[O-])ccc3c(NNc3ccc([N+](=O)[O-])cc3)c2c1`, the GI50 was inactive: 63.1 µM. For `CN(Cc1cnc2nc(N)nc(N)c2n1)c1ccc(C(=O)NC(CCC(=O)O)C(=O)O)cc1C(F)(F)F` (centres undefined), the GI50 was inactive: 66.4 µM. For `CCC1(CC)C(=O)NC(=S)N=C1N`, the GI50 was inactive: > 100 µM. `Fc1ccc(/C(=N/Cc2ccccc2)N2CCOCC2)cc1` was tested, and the GI50 was inactive: > 100 µM. `C/C1=C/C(C)CC(C)OC(=O)C(C)NC(=O)C(Cc2ccc(O)c(I)c2)N(C)C(=O)CNC(=O)C(C)C1` (centres undefined) was tested, and the GI50 was inactive: 1.18 µM. In the case of `O=C(O)c1nc2ccccc2nc1Nc1ccc(F)cc1`, the GI50 is reported as inactive: 34.8 µM. For `CCCCCCCCCCCCCCCCCCNc1ccn(C2OC(COP(=O)(O)OCC3OC(n4ccc(N)nc4=O)C(O)C3O)C(O)C2O)c(=O)n1` (centres undefined), the GI50 was inactive: 54 µM. With `COC(=O)/C=C(\CC(=O)OC)n1nnnc1[C@@H]1C[C@H](COC(c2ccccc2)(c2ccccc2)c2ccccc2)[C@H]2OC(C)(C)O[C@H]21` the GI50 was inactive: > 100 µM. In the case of `COC(=O)c1csnn1`, the GI50 is reported as inactive: > 100 µM. With `C=C1C(=O)O[C@@H]2/C=C(C)/C=C\[C@@H]3O[C@@]3(C)C[C@@H](O)C12` (some centres undefined) the GI50 was inactive: 33.9 µM. In the case of `C[C@@H](c1ccccc1)n1c(N)c(C#N)c2ccc([N+](=O)[O-])cc2c1=O`, the GI50 is reported as inactive: 18.7 µM. `N#Cc1nc(C#N)c(NC(=O)c2ccccc2C(=O)O)[nH]1` was tested, and the GI50 was inactive: > 100 µM. With `O=C1/C(=C\c2ccc([N+](=O)[O-])o2)SC2NC(COc3ccc(Cl)cc3)=NN12` (centres undefined) the GI50 was inactive: 17.9 µM. `COc1cc(CCC(=O)NS(=O)(=O)c2ccccc2)cc(OC)c1OC` was tested, and the GI50 was inactive: > 100 µM. In the case of `CCCCCCc1cc2cc(-c3cn4c(n3)sc3ccccc34)c(=O)oc2cc1O`, the GI50 is reported as inactive: > 87.1 µM. `CCOP(=O)(OCC)/C(C#N)=C/c1cnc(-c2ccccc2)[nH]1` was tested, and the GI50 was inactive: > 100 µM. `CC(=O)N1C(C(=O)NNc2ccccc2)CSC1c1ccccc1` (centres undefined) was tested, and the GI50 was inactive: > 100 µM. `CC1=C(C(=O)OCc2ccncc2)C(C2=C(C)SCCS2)C(C(=O)OCc2ccncc2)=C(C)N1` was tested, and the GI50 was inactive: 34.3 µM. For `CC(C)(C)OC(=O)N1CCC2(C)CC(=O)CC=C12` (centres undefined), the GI50 was inactive: > 100 µM. For `CCCCCCCCCCCCC(=O)NCC(=O)NC(Cc1ccccc1)C(=O)Oc1ccc([N+](=O)[O-])cc1` (centres undefined), the GI50 was inactive: 72.8 µM. For `CCOC(=O)Nc1cc(NC(/C=N/NC(C)=O)C(=O)OCC)c(OC)cc1NC(C)=O` (centres undefined), the GI50 was inactive: > 100 µM. In the case of `CC(=O)O[C@H]1CN(S(=O)(=O)c2ccc(C)cc2)C[C@@H]1C1CCCCC1`, the GI50 is reported as inactive: 42.9 µM. With `COc1ccc(/C=C2\OC(=O)C(Cl)=C2c2ccc(OC)cc2)cc1` the GI50 was inactive: > 100 µM. For `CC1=CCC(O)C=CC(C)C(O)C(C)C=C(C)C(=O)c2c(O)c(C)cc3c2C(=O)C(N)=C(NC(=O)/C=C\C=C/C=CC(C)C(O)CC1=O)C3=O` (centres undefined), the GI50 was inactive: > 100 µM. In the case of `C=C(C)C1CC=C(C)C2(C1)OCC(C)(C)C(C)O2` (centres undefined), the GI50 is reported as inactive: 23.6 µM. In the case of `Cc1ccc(S(=O)(=O)ON/N=C2/C3OC3[C@@H]3CCCC[C@H]23)cc1` (some centres undefined), the GI50 is reported as inactive: > 100 µM. For `COC(=O)[C@H]1C=C[C@H](OC2OC(COC(C)=O)C(OC(C)=O)C(OC(C)=O)C2OC(C)=O)n2c(=O)n(-c3ccccc3)c(=O)n21` (some centres undefined), the GI50 was inactive: 16 µM. In the case of `Oc1ccc(/C=N/c2ccccc2O)cc1`, the GI50 is reported as inactive: > 100 µM. In the case of `COc1cc(C(C)c2cc3c(cc2OCCN)OCO3)cc(OC)c1OC` (centres undefined), the GI50 is reported as inactive: 59.2 µM. For `COC(CN(C=O)[C@@H](c1ccc(Cl)cc1)c1cc2ccccc2o1)OC`, the GI50 was inactive: 13.2 µM. With `O=C(NNC(=S)Nc1ccc(Cl)cc1)c1cc(-c2ccccc2)nc2ccccc12` the GI50 was inactive: 5.93 µM. In the case of `CC[N+](CC)(CCNCC(N)=O)CC(N)=O`, the GI50 is reported as inactive: > 10 µM. With `Cc1sc2ccccc2[n+]1CCC(=O)O` the GI50 was inactive: > 100 µM. With `COC(=O)c1cc(NC(=O)Cn2c3ccccc3c3ccccc32)cn1C` the GI50 was inactive: 60.5 µM. With `CN(C)/N=C/c1cn(C)c(=O)n(C)c1=O` the GI50 was inactive: > 100 µM. For `CC(C)(CCl)NC(=O)c1cccc(C(=O)NC(C)(C)CCl)n1`, the GI50 was inactive: > 100 µM. `Cc1ccc(NC(=O)CC/C(CC(=O)C(C)(C)C)=N\Nc2ccc([N+](=O)[O-])cc2[N+](=O)[O-])cc1C` was tested, and the GI50 was inactive: > 100 µM. `N#CC1C[C@@H]2CC3(CCC2CN1C(=O)c1ccccc1)OCCO3` (some centres undefined) was tested, and the GI50 was inactive: > 100 µM. With `CC(C)CCCC(C)[C@H]1CC[C@H]2N/C(=N/Cc3ccccc3)CCC[C@]12C` (some centres undefined) the GI50 was inactive: 2.24 µM. For `O=C1OC(=O)C2C1C1C(c3ccccc3)=C(c3ccccc3)C2(O)C2C(=O)OC(=O)C12` (centres undefined), the GI50 was inactive: > 100 µM. In the case of `CC(=O)OCC1OC(n2c(-c3ccccc3)c(/N=N/c3ccc(C)cc3)c(C)c(C#N)c2=S)C(OC(C)=O)C(OC(C)=O)C1OC(C)=O` (centres undefined), the GI50 is reported as inactive: > 100 µM. In the case of `CN(CCc1ccccn1)c1nc(=[N+](C)C)ss1`, the GI50 is reported as inactive: > 100 µM. `O=C[C@@H](CO)O[C@H](C=O)c1c[nH]c(=O)[nH]c1=O` was tested, and the GI50 was inactive: 96.2 µM. `O=C(NCc1cccc2ccccc12)N/N=C\c1ccc(Cl)cc1` was tested, and the GI50 was inactive: 52 µM. For `COc1ccc(Nc2nc3cc(C(F)(F)F)ccc3nc2C(=O)O)cc1`, the GI50 was inactive: 23.9 µM. For `CC(=O)OCC1OC(n2c(-c3ccccc3)c(C(C)=O)c(-c3cccc4ccccc34)c(C#N)c2=S)C(OC(C)=O)C(OC(C)=O)C1OC(C)=O` (centres undefined), the GI50 was inactive: > 100 µM. `C/C(=N\NC(=S)N1CC2CCC(CC2)C1)c1cccc(C)n1` was tested, and the GI50 was active: 0.373 µM. With `CCOC(=O)c1c(NC(=S)Nc2ccc(C)cc2)sc2c1CCN(C)C2` the GI50 was inactive: > 100 µM. For `Cc1nc2c(-c3ccccc3)[nH]c(C)c2c(=O)o1`, the GI50 was inactive: > 100 µM. In the case of `COC(=O)[C@H]1[C@@H](O)[C@@]2(O)c3c(OC)cc(OC)cc3O[C@@]2(c2ccc3c(c2)OCO3)[C@@H]1c1ccccc1`, the GI50 is reported as active: 0.00857 µM. In the case of `CN(C)C(=N/O)/C(=N\O)N(C)C`, the GI50 is reported as inactive: > 100 µM. `Clc1ccc(C2=CC(c3ccccc3)N3C(=N[C@H]4CCCC[C@@H]43)N2)cc1` (some centres undefined) was tested, and the GI50 was inactive: 5.04 µM. For `CC[C@@]12N=C(N(C)C)C[C@]1(O)ON=C2C`, the GI50 was inactive: > 100 µM. In the case of `COC(=O)c1ccccc1C1CN=NC12Cc1cc(C)cc(C)c1C2=O` (centres undefined), the GI50 is reported as inactive: 50.4 µM. For `COC(=O)C1=C(O)C(C(=O)OC)[C@]2(O)[C@@H](C(=O)OC)[C@H]1[C@H](C)[C@@H](c1ccccc1)[C@@H]2C(=O)OC` (some centres undefined), the GI50 was inactive: > 100 µM. In the case of `COC(=O)/C(=N\N)C(C(=O)C(=O)Nc1cccc([N+](=O)[O-])c1)c1nc2ccc(C(=O)c3ccccc3)cc2nc1O` (centres undefined), the GI50 is reported as inactive: > 100 µM. With `COc1ccc(Oc2nc3ccc(C(F)(F)F)cc3nc2-c2ccccc2)cc1` the GI50 was inactive: > 100 µM. For `CC(=O)N1C(Nc2nccs2)CCN1c1ccccc1` (centres undefined), the GI50 was inactive: > 10 µM. `CC(=N\N)/C(C)=N/N=C(C)/C(C)=N/N` was tested, and the GI50 was inactive: > 100 µM. For `CCc1c(Cc2[nH]c(Cc3[nH]c(C=O)c(C)c3CC)c(CC)c2CC)[nH]c(C=O)c1C`, the GI50 was inactive: > 100 µM. With `CC1=C/C(=N\N(C)C)C(C(O)(C(F)(F)F)C(F)(F)F)C(C)(C)C1` (centres undefined) the GI50 was inactive: > 100 µM. `c1ccc(/C(=N\Nc2nc3ccccc3[nH]2)c2ccccn2)cc1` was tested, and the GI50 was active: 0.372 µM. In the case of `CC(C)C1(Cl)CCC2C3(C)CCCC(C)(C(=O)O)C3CC(Cl)C2(Cl)C1Cl` (centres undefined), the GI50 is reported as inactive: 25.3 µM. `CC(=O)OC(C(=O)O)C(OC(C)=O)C(OC(C)=O)C(OC(C)=O)C(=O)O` (centres undefined) was tested, and the GI50 was inactive: > 100 µM. In the case of `O=c1[nH]c(=O)n(C2CC(O)C(CO)O2)cc1/N=N/NCc1ccccc1` (centres undefined), the GI50 is reported as inactive: > 100 µM. In the case of `c1ccc([P+](CCN2Cc3ccccc3C2)(c2ccccc2)c2ccccc2)cc1`, the GI50 is reported as inactive: 18.3 µM. With `O=C1SC(SCc2ccccc2)=NC12CC2c1ccccc1` (centres undefined) the GI50 was inactive: 22.5 µM. `CC(SC(=S)Nc1cccc(F)c1)C(=O)O` (centres undefined) was tested, and the GI50 was inactive: 31.1 µM. `O=C(O)CCN1CCN(CCC(=O)O)CCN(CCC(=O)O)CC1` was tested, and the GI50 was inactive: > 100 µM. For `CN(CCN1CCCC1)C1CCc2cc(Cl)c(Cl)cc2C1` (centres undefined), the GI50 was inactive: 16.1 µM. In the case of `Cc1cc(Cl)ccc1NC(=O)C1C(=O)N(c2ccc(Cl)cc2C)C(=O)/C1=N\N` (centres undefined), the GI50 is reported as inactive: 33.7 µM. In the case of `C[Si]12OCCCN(CCO1)CCO2`, the GI50 is reported as inactive: > 100 µM. In the case of `COC(=O)C(=O)C(C#N)c1ccc(CC#N)cc1` (centres undefined), the GI50 is reported as inactive: > 100 µM. With `O=c1[nH]/c(=C/c2ccc(OCc3ccccc3)cn2)c(=O)[nH]/c1=C/c1cccnc1` the GI50 was inactive: 1.47 µM. In the case of `COc1ccc(-c2cc(-c3cc(F)c(Cl)cc3Cl)[nH]n2)cc1OC`, the GI50 is reported as inactive: 28.8 µM. For `NCS(=O)(=O)O`, the GI50 was inactive: > 100 µM. With `Nc1ccn(CCCC(c2ccccc2)P(=O)(O)O)c(=O)n1` (centres undefined) the GI50 was inactive: > 100 µM. `C=CCOC1OC(CS(=O)(=O)O)C(O)C(O)C1O` (centres undefined) was tested, and the GI50 was inactive: > 100 µM. For `Cc1c(O)c(OC2OC(CO)C(O)C(O)C2O)cc2c1CC[C@@H]1C2(C)C(=O)C[C@]2(C)[C@@H]([C@@](C)(O)C(=O)CCC(C)(C)O)[C@H](O)C[C@@]12C` (some centres undefined), the GI50 was inactive: > 100 µM. `CC(=O)O[C@H]1C(=O)[C@@]2(C)C(C(OC(=O)c3ccccc3)[C@]3(O)CC(OC(=O)C(O)C(NC(=O)c4ccc(C)cc4)c4ccccc4)C(C)=C1C3(C)C)[C@]1(OC(C)=O)CO[C@@H]1C[C@@H]2O` (some centres undefined) was tested, and the GI50 was active: 0.00973 µM. With `CN1N=C2c3ccccc3OC(c3ccccc3)[C@H]2C1c1ccccc1` (some centres undefined) the GI50 was inactive: 87.1 µM. `COC(=O)[C@]1(c2cc3ccccc3[nH]2)CC2CN(C(=O)OCc3ccccc3)C1CC2=O` (some centres undefined) was tested, and the GI50 was inactive: 20.6 µM. For `CN(C)c1cccc(-c2cc(O)c3cc4c(cc3n2)OCO4)c1`, the GI50 was inactive: 2.52 µM. `O=C1NC(O)CCN1C1OC(CO)C(O)C1O` (centres undefined) was tested, and the GI50 was inactive: > 250 µM. `CCN(CC)CCNC(=O)c1ccc(I)cc1` was tested, and the GI50 was inactive: > 100 µM.
